{
  "source": "PubChem BioAssay AID485281",
  "about": "(National Center for Advancing Translational Sciences (NCATS), 2010)",
  "note": "The campaign covered roughly 350,000 compounds. About 260 (0.074%) were called active. The inconclusive results got no clear call from the source; some entries with a clear call stand among them for comparison. Calls come from the whole dose curve; as a rule, active = well fitted inhibition curve with a large enough effect; inconclusive = small, poorly fitted or top-dose-only effect; inactive = no such curve, though single readings can be large or run the other way. Potencies of inconclusive entries are doubtful fits and often do not repeat. % is set by controls: 0 for no effect and ±100 for the full control effect; potency is the fitted concentration of half-maximal effect; tags give direction and shape of the fitted curve.",
  "data": [
    {"molecular_target": "Ferritin light chain (Equus caballus) (UniProt P02791)", "sequence (P02791 whole entry, looked up)": "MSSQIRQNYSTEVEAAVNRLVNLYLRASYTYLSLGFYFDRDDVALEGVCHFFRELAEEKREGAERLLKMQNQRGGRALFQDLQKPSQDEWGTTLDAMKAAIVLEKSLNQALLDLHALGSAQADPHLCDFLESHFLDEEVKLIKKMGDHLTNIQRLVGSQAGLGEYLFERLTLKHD", "assay": "qHTS Assay for Identification of Novel General Anesthetics; note: nearly all actives have a fitted effect of over 20% in size", "details": "apoferritin/1-aminoanthracene competitive binding, fluorescence; activity change, negative = displacement: at 77.5 µM (top of the series)", "how_it_was_run": "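Apoferritin-based anesthetic binding model; compound displacement of fluorescent 1-AMA measured as endpoint fluorescence after 10 minutes at room temperature, scaled to free-ligand and complex controls.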", "values": [
      {"compound": "Cc1ccc(Cn2ccc(NC(=O)c3noc4c3CCCCC4)n2)cc1", "Potency": "inconclusive: 12.6 µM [inhibitor, partial curve]"},
      {"compound": "COc1cc(OC)cc(C(=O)/C=C2\\Sc3ccccc3N2C)c1", "activity change, negative = displacement": "inactive: 6.69%"},
      {"compound": "CC1C/C(=N\\NC(=S)NCc2ccccc2)CC(C)(C)C1", "note": "(configuration not stated)", "Potency": "inconclusive: 20 µM [inhibitor, partial curve]"},
      {"compound": "COc1ccc(CNC(=O)c2c3c(nc4ccccc24)C(=O)N(C2CCCCC2)C3)c(OC)c1", "Potency": "inconclusive: 35.5 µM [inhibitor, partial curve]"},
      {"compound": "CCCC(=O)Nc1nc(C)c(-c2csc(Nc3ccc(Cl)cc3)n2)s1", "Potency": "inconclusive: 15.8 µM [inhibitor, partial curve]"},
      {"compound": "CS(=O)(=O)Nc1cccc(C2=NN(S(=O)(=O)c3ccc(F)cc3)C(c3cccs3)C2)c1", "note": "(configuration not stated)", "activity change, negative = displacement": "inactive: -12.7%"},
      {"compound": "CCOc1ccccc1N(CC)C(=O)c1cc2c(=O)[nH]c3ccc(C)cc3c2s1", "Potency": "inconclusive: 7.08 µM [inhibitor, partial curve]"},
      {"compound": "O=C(C1CCCN(S(=O)(=O)c2cccc3nsnc23)C1)N1CC=C(c2ccccc2)CC1", "note": "(configuration not stated)", "Potency": "inconclusive: 15.8 µM [inhibitor, partial curve]"},
      {"compound": "COc1ccc(C2=NN(CCC(=O)NC3CCC(C)CC3)C(=O)CC2)cc1", "note": "(configuration not stated)", "Potency": "inconclusive: 11.2 µM [inhibitor, partial curve]"},
      {"compound": "Cc1onc(-c2ccccc2Cl)c1C(=O)Nc1ccc(N2CCOCC2)cc1", "Potency": "inconclusive: 35.5 µM [inhibitor, partial curve]"},
      {"compound": "CSc1nc(NCc2ccco2)c2sc3nc(C(C)C)c4c(c3c2n1)CC(C)(C)OC4", "Potency": "inconclusive: 35.5 µM [inhibitor, single point]"},
      {"compound": "Cc1ccc(NC(=O)CCCc2nnc3n(C)c(=O)c4sccc4n23)cc1F", "Potency": "inconclusive: 11.2 µM [inhibitor, single point]"},
      {"compound": "CCCNC(=O)c1ccc2c(c1)sc1nc(-c3ccc(C)cc3)cn12", "activity change, negative = displacement": "inactive: 3.05%"},
      {"compound": "CCOc1ccc(N2C(=O)C3C4C=CC(CC4)C3C2=O)c([N+](=O)[O-])c1", "note": "(configuration not stated)", "Potency": "inconclusive: 15.8 µM [inhibitor, partial curve]"},
      {"compound": "CC(C)=CCc1c(O)ccc2c1OC(c1ccc(O)c(O)c1)CC2=O", "note": "(configuration not stated)", "Potency": "inconclusive: 17.8 µM [inhibitor, partial curve]"},
      {"compound": "CC(=O)C1=C(C)NC(SCC(=O)Nc2nccs2)=C(C#N)C1c1ccccc1Cl", "note": "(configuration not stated)", "activity change, negative = displacement": "inactive: 1.92%"},
      {"compound": "Cc1cccc(C(=O)N2CCCCCC2)c1", "Potency": "inconclusive: 12.6 µM [inhibitor, partial curve]"},
      {"compound": "c1nnnn1C12CC3CC(CC(C3)C1)C2", "Potency": "inconclusive: 31.6 µM [inhibitor, partial curve]"},
      {"compound": "Fc1cccc(Cl)c1Cn1c(-c2cccs2)nc2ccccc21", "activity change, negative = displacement": "inactive: 46.5%"},
      {"compound": "O=C(CCC1N=C2c3ccccc3N=C(SCc3cccc(F)c3)N2C1=O)NCc1cccs1", "note": "(configuration not stated)", "Potency": "inconclusive: 25.1 µM [inhibitor, partial curve, poor fit]"},
      {"compound": "CCOc1ccc(CC(=O)Nc2sc(Cc3ccccc3)c(C)c2C(N)=O)cc1OCC", "Potency": "inconclusive: 56.2 µM [inhibitor, single point]"},
      {"compound": "O=C(Cc1cccs1)N=Nc1c(O)[nH]c2ccc(Br)cc12", "Potency": "inconclusive: 56.2 µM [inhibitor, single point]"},
      {"compound": "O=C(CCCSc1ccccc1)Nc1nc(-c2ccco2)c(-c2ccco2)s1", "Potency": "inconclusive: 50.1 µM [inhibitor, single point]"},
      {"compound": "O=C(CSc1n[nH]c(-c2ccc(Cl)cc2Cl)n1)Nc1ccccn1", "Potency": "inconclusive: 31.6 µM [inhibitor, partial curve]"},
      {"compound": "CC(=O)C(Sc1nn(C)c(=S)s1)C(=O)Nc1ccccc1", "note": "(configuration not stated)", "Potency": "inconclusive: 50.1 µM [inhibitor, single point]"},
      {"compound": "CCCCc1nn2c(=O)cc(COC(=O)C3CCCCC3)nc2s1", "Potency": "inconclusive: 35.5 µM [inhibitor, single point]"},
      {"compound": "Cc1ccc(NC(=O)C2(c3ccccc3)CC2(Cl)Cl)cc1C", "note": "(configuration not stated)", "Potency": "inconclusive: 7.94 µM [inhibitor, partial curve]"},
      {"compound": "Fc1ccc(N2CCN(C3=Nc4cccc5cccc3c45)CC2)cc1", "Potency": "inconclusive: 28.2 µM [inhibitor, partial curve]"},
      {"compound": "Cc1cc(C(F)(F)F)nn1CC(=O)N(C)c1ccccc1", "Potency": "inconclusive: 28.2 µM [inhibitor, single point]"},
      {"compound": "Cc1ccc(N2CC(NC(=O)c3ccc(S(=O)(=O)N4CCCC4)cc3)CC2=O)cc1C", "note": "(configuration not stated)", "Potency": "inconclusive: 50.1 µM [inhibitor, single point]"},
      {"compound": "COCCOC(=O)C1=C(C)NC2=C(C(=O)CC(C)(C)C2)C1c1cccnc1", "note": "(configuration not stated)", "activity change, negative = displacement": "inactive: 201%"},
      {"compound": "Cc1cccc(CS(=O)(=O)Cc2ccc(C(=O)NCCc3ccccc3)o2)c1", "Potency": "inconclusive: 50.1 µM [inhibitor, partial curve]"},
      {"compound": "CC1=NN2C(=N)/C(=C\\c3ccc(SCc4ccccc4)o3)C(=O)N=C2S1", "activity change, negative = displacement": "inactive: -17.3%"},
      {"compound": "Cc1ccc(-c2cn(-c3cccc(Cl)c3)c(S(=O)(=O)CC(=O)Nc3cccc(C)c3)n2)cc1", "activity change, negative = displacement": "inactive: -21.4%"},
      {"compound": "Cc1ccc(C)c(NC(=O)CCC(=O)N/N=C/c2ccc[nH]2)c1", "Potency": "inconclusive: 28.2 µM [inhibitor, partial curve]"},
      {"compound": "CCOC(=O)c1nnc(-c2ccccc2)nc1Sc1ccccc1Cl", "Potency": "inconclusive: 22.4 µM [inhibitor, partial curve]"},
      {"compound": "O=[N+]([O-])c1ccc(Cl)cc1NCCCN1CCOCC1", "Potency": "inconclusive: 25.1 µM [inhibitor, partial curve]"},
      {"compound": "COc1ccc2occ(C(=O)c3ccc(N=C(C)N(C)C)cc3)c2c1", "Potency": "inconclusive: 12.6 µM [inhibitor, partial curve]"},
      {"compound": "O=C(NN1C(=O)/C(=C/C=C/c2ccco2)SC1=S)c1ccccc1O", "activity change, negative = displacement": "inactive: 2.09%"},
      {"compound": "O=[N+]([O-])c1ccc(NCCCNS(=O)(=O)c2ccc(Cl)cc2)c(Cl)c1", "Potency": "inconclusive: 8.91 µM [inhibitor, partial curve]"},
      {"compound": "NNC(=O)CNC(=O)c1cccc(Br)c1", "Potency": "active: 28.2 µM"},
      {"compound": "COc1ccc(CNC(=O)c2ccc(C(C)(C)C)cc2)cc1", "Potency": "inconclusive: 10 µM [inhibitor, full curve, poor fit]"},
      {"compound": "C=C(C)c1cccc(C(C)(C)NC(=O)N2CCCC2)c1", "activity change, negative = displacement": "inactive: 0.303%"},
      {"compound": "Cc1ccc(N2C(=O)CSC2c2c(F)cccc2Cl)cc1", "note": "(configuration not stated)", "Potency": "inconclusive: 20 µM [inhibitor, partial curve]"},
      {"compound": "COc1cccc(Cn2c(CNS(=O)(=O)c3ccc(C(C)(C)C)cc3)nc3cccnc32)c1", "Potency": "inconclusive: 3.98 µM [inhibitor, full curve, poor fit]"},
      {"compound": "COc1ccccc1N1CCN(C(=O)c2cc(S(=O)(=O)N3CCC(C)CC3)cn2C)CC1", "Potency": "inconclusive: 39.8 µM [inhibitor, single point]"},
      {"compound": "CN(C)CCCN(C(=O)c1ccc(S(=O)(=O)N(C)C2CCCCC2)cc1)c1nc2ccc(F)cc2s1", "Potency": "inconclusive: 28.2 µM [inhibitor, partial curve]"},
      {"compound": "COc1cc2c(-c3cc(Br)ccc3O)nc3c(c(C)nn3-c3ccccc3)c2cc1OC", "activity change, negative = displacement": "inactive: -6.52%"},
      {"compound": "CCOC(=O)Cn1c(=O)n(CC2CCCO2)c2nc(-c3ccc(C(C)C)cc3)nc(C(N)=O)c21", "note": "(configuration not stated)", "Potency": "inconclusive: 6.31 µM [inhibitor, single point]"},
      {"compound": "O=C(CNC(=O)c1cccc(Cl)c1)N/N=C/C=C/c1ccccc1", "Potency": "inconclusive: 11.2 µM [inhibitor, partial curve]"},
      {"compound": "CCSS(=O)(=O)c1cccc2cccnc12", "activity change, negative = displacement": "inactive: -4.37%"},
      {"compound": "CCOC(=O)c1ccc(N2C(=O)c3n[nH]c(C)c3C2c2ccc(OCC)cc2)cc1", "note": "(configuration not stated)", "Potency": "inconclusive: 3.98 µM [inhibitor, full curve, poor fit]"},
      {"compound": "Cc1ccccc1N(C)S(=O)(=O)c1nnc(NC(=O)C(C)C)s1", "activity change, negative = displacement": "inactive: -14.9%"},
      {"compound": "Cc1cc(-n2c(C)cc(C(=O)CSc3ncnc4ccccc34)c2C)no1", "Potency": "inconclusive: 31.6 µM [inhibitor, partial curve]"},
      {"compound": "COC(=O)CN(C)C(=O)c1ccc2nc(Cc3cccc(Cl)c3)oc2c1", "Potency": "inconclusive: 20 µM [inhibitor, partial curve]"},
      {"compound": "O=C(CSCc1ccco1)c1cccs1", "Potency": "inconclusive: 39.8 µM [inhibitor, partial curve]"},
      {"compound": "COc1ccc2nc(/C=N/NC(=O)CCCCCNC(=O)OC(C)(C)C)ccc2c1", "activity change, negative = displacement": "inactive: -6.4%"},
      {"compound": "CC(C)Cn1c(=O)c2ccccc2n2c(CCC(=O)N3CCN(c4ccccc4)CC3)nnc12", "Potency": "inconclusive: 14.1 µM [inhibitor, partial curve]"},
      {"compound": "C/C(=N\\NC(=O)CNC(=O)c1ccncc1)c1ccc(C)cc1", "Potency": "inconclusive: 31.6 µM [inhibitor, partial curve]"},
      {"compound": "CC(C)c1ccc(C2c3c(-c4ccccc4O)n[nH]c3C(=O)N2Cc2ccncc2)cc1", "note": "(configuration not stated)", "Potency": "inconclusive: 17.8 µM [inhibitor, partial curve]"},
      {"compound": "COCc1ccc(C(=O)N2CCCC(Nc3ccc(C(C)C)cc3)C2)s1", "note": "(configuration not stated)", "Potency": "inconclusive: 35.5 µM [inhibitor, single point]"},
      {"compound": "C=CCc1cccc(/C=N/NC(=O)CCCNc2ccc(C)cc2)c1O", "Potency": "inconclusive: 50.1 µM [inhibitor, single point]"},
      {"compound": "CCN(CC)CCNC(=O)c1cc2c(=O)n(C)c3ccccc3c2n1C", "activity change, negative = displacement": "inactive: -4.59%"},
      {"compound": "Cc1cc2c(c(=O)o1)[C@H](O)[C@H]1O[C@@H]1C2=O", "activity change, negative = displacement": "inactive: -6.94% [at 15.3 µM]"},
      {"compound": "Cc1ccccc1-c1nnc(-c2ccccc2)o1", "Potency": "inconclusive: 8.91 µM [inhibitor, partial curve]"},
      {"compound": "Cc1ccccc1OCCn1c(C)nc2ccccc21", "activity change, negative = displacement": "inactive: -22.5%"},
      {"compound": "Cc1ccc2onc(CNC(=O)Nc3cc(F)ccc3F)c2c1", "Potency": "inconclusive: 44.7 µM [inhibitor, single point]"}
    ]}
  ]
}
